# According to PubChem BioAssay (NCATS):
# Where “and” joins values, the source holds several entries; their conditions need not be identical. Equal entries are not always repeated. The list shows a part of the results. Shown are side measurements of this screen, not its main read-out; they come without a call. Most of these compounds were active or inconclusive in the main read-out, so they are no random draw. The note in brackets gives the kind of curve behind each potency; many fits are weak.
# Assay: qHTS Assay for Lipid Storage Modulators (AID 1519)
# Settings: Drosophila S3 cells, BODIPY lipid droplet/cell ratio, laser cytometry; measured here: lipid (BODIPY) channel AC50; cells loaded with oleic acid
# Summary of the method: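 Cells seeded at 5,000 per well were treated with compounds over a concentration series and loaded with oleic acid (400 uM, as added). Lipid droplet fluorescence (488 nm excitation, 500-530 nm channel) was read by laser-scanning cytometry and normalized to 20 uM Triacsin C.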
# Tags tell the direction and shape of the fitted curve.
row,Structure (SMILES),AC50
1,O=C(c1csnn1)N1CCC2(CCCN(c3ccc(-c4ccccc4)cc3)C2)CC1,"2510 nM [rising, partial curve]"
2,CO/N=C(\C(=O)N[C@@H]1C(=O)N2C(C(=O)O)=C(CSc3nc(=O)c(O)nn3C)CSC12)c1csc(N)n1 (stereo partly drawn),"39800 nM [rising, single point]"
3,COc1ccccc1CCn1c(=O)c(-c2cn(C)c3ccccc23)nc2cncnc21,"112 nM [rising, full curve, poor fit]"

# Same assay, conditions: Drosophila S3 cells, BODIPY lipid droplet/cell ratio, laser cytometry; measured here: lipid channel max response; cells loaded with oleic acid
row,Structure (SMILES),max response
1,CCNc1ncc2nc(-c3ccc(OC)cc3)c(=O)n(Cc3ccc(F)cc3)c2n1,9.93%
2,O=C(OCCN1CCOCC1)C1(c2ccccc2)CCCCC1,83.5% and -9.08%
3,O=C(c1ccncc1)N1CCC[C@@]2(CCN(Cc3ccccc3)C2)C1,30.5%
4,COCCn1c(=O)c(-c2cccc(C#N)c2)nc2cnc(N3CCNCC3)nc21,9.79%
5,COc1ncc2nc(-c3ccc(Cl)cc3)c(=O)n(CCC#N)c2n1,42.8%
6,COc1ncc2nc(-c3ccccc3)c(=O)n(CCC#N)c2n1,52%
7,Cc1ccc(-c2nn(CC(C)(C)C)c3ncnc(N)c23)cc1,97.7%
8,CS(=O)(=O)Nc1ccc([N+](=O)[O-])cc1OC1CCCCC1,40.6%
9,COCCn1c(=O)c(-c2ccc(OC)cc2)nc2cnc(OC)nc21,36.3%
10,C[C@H]1[C@H](C)CC[C@]2(C(=O)O)CC[C@]3(C)C(=CCC4[C@@]5(C)CC[C@H](O)C(C)(C)[C@@H]5CC[C@]43C)[C@H]12 (stereo partly drawn),81.3%
11,C1CCc2nnnn2CC1,21.5%
12,Cc1noc(C)c1C(=O)N1CCC[C@@]2(CCN(Cc3ccc(C#N)cc3)C2)C1,46.4%
13,O=C1c2ccccc2C(=O)c2c1ccc(O)c2O,129%
14,O=C(/C=C/c1ccccc1)c1cccs1,73.4%
15,COc1cc2c(cc1OC)C(=O)Cc1ccc3c(c1CN(C)CC2)OCO3,99.9%
16,COCCn1c(=O)c(-c2ccc(OC)cc2)nc2cnc(Nc3ccccc3)nc21,31.1%
17,COCCn1c(=O)c(CCc2ccccc2)nc2cnc(OC)nc21,20.1%
18,COc1cccc(-c2nccc(NCc3cccnc3)n2)c1,23.2%
19,CCOc1ccc(/C=C/C(=O)c2cccs2)cc1,92.7%
20,C=CCN1CCc2cc(O)c(O)cc2[C@H](c2ccccc2)C1,58.3%

row,Structure (SMILES),max response
1,CC(C)(C)c1cc(O)c(C(C)(C)C)cc1O,89%
2,c1cncc(-c2cncnc2NCc2cccs2)c1,40.8%
3,Cc1cc(NC(=O)Nc2ccc(N(C)C)cc2)c2cc(F)cc(F)c2n1,-38.8%
4,COCCn1c(=O)c(-c2cccc(C#N)c2)nc2cnc(Oc3cccc(Cl)c3)nc21,-11.2%
5,COc1cccc(-c2ccc3ncnc(N(C)C)c3c2)c1,-5.81%
6,O=c1c(-c2ccccc2)nc2cnc(N3CCNCC3)nc2n1Cc1ccc(F)cc1,31.7%
7,COc1cccc(-c2nc(NC3CC3)c3ccccc3n2)c1,14.3%
8,COCCNc1nc(-c2cccc(NS(C)(=O)=O)c2)nc2ccccc12,43.2%
9,COc1ccc(Oc2ncc3nc(-c4ccc(F)cc4)c(=O)n(C4CC4)c3n2)cc1,19%
10,COc1ccc(C(=O)N2CCC[C@@]3(CCN(c4ccccc4)C3)C2)cc1,-4.14%
11,c1ccc(Nc2nc(-c3cccnc3)nc3ccccc23)cc1,23.5%
12,N#CCCn1c(=O)cnc2cnc(Nc3ccccc3)nc21,29.9%
13,COc1cccc(CNc2ccc3nc(-c4ccc(N)cc4)c(OC)n3n2)c1,133%
14,COc1ccc2[nH]cc(CCNc3nc(-c4cccnc4)nc4ccccc34)c2c1,34.1%
15,CS(=O)(=O)Nc1cccc(-c2nccc(Nc3ccc(F)cc3)n2)c1,-6.01%
16,COc1ccccc1CNc1ccnc(-c2cccnc2)n1,27.3%
17,COc1ccc(Oc2ncc3nc(-c4cc(F)cc(F)c4)c(=O)n(CCC#N)c3n2)cc1,8.61%
18,O=C(c1csnn1)N1CCC2(CCCN(c3ccc(-c4ccccc4)cc3)C2)CC1,6.8%
19,CO/N=C(\C(=O)N[C@@H]1C(=O)N2C(C(=O)O)=C(CSc3nc(=O)c(O)nn3C)CSC12)c1csc(N)n1 (stereo partly drawn),55.4%
20,COc1ccccc1CCn1c(=O)c(-c2cn(C)c3ccccc23)nc2cncnc21,20.6%
